Test results reported in PubChem BioAssay AID504832 (National Center for Advancing Translational Sciences (NCATS), 2011).
About 18,000 (5.8%) of roughly 310,000 compounds were called active. This list was built around the results that the source calls inconclusive (neither active nor inactive); the mix of calls is not that of the screen. Calls follow the shape of the dose curve; as a rule, active = well fitted inhibition curve with a large enough effect; inconclusive = small, poorly fitted or top-dose-only effect, or another doubt; inactive = no such curve, though single readings can be large or run the other way. No potency is given beside an inconclusive call; the fits are too rough.

Test: Primary qHTS for delayed death inhibitors of the malarial parasite plastid, 48 hour incubation
Details: P. falciparum luciferase growth in erythrocytes; series mostly up to 28.7 µM; activity change, negative = inhibition: at the top concentration
Outline: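 Read-out is firefly luciferase luminescence from an integrated reporter in P. falciparum, so falling signal marks reduced parasite growth. Infected erythrocytes were at 2% hematocrit and 0.1% parasitemia (final) in Albumax-supplemented RPMI 1640.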
% is scaled to controls: 0 for no effect and ±100 for the full control effect; potency is read from the fitted curve at half-maximal effect; tags tell the direction and shape of the fitted curve.

| SMILES | Potency | activity change, negative = inhibition |
| --- | --- | --- |
| Cc1ccc(C2(c3noc(CN(C)CCO)n3)CCCC2)cc1 | inconclusive [inhibitor, full curve] | – |
| O=C(CSC1=NCCS1)N1CCc2ccccc21 | – | inactive: 134% |
| CC(C)(C)CC(=O)Nc1nn[nH]n1 | – | inactive: 2.82% |
| Cc1ccc(-c2csc(Nc3ccccc3)[n+]2CCc2ccccc2)cc1 | active: 11.7 µM | – |
| O=C(/C=C/c1ccccc1)NC(NC(=S)Nc1cccc(O)c1)C(Cl)(Cl)Cl (stereo not drawn) | inconclusive [inhibitor, single point] | – |
| COc1ccc(/C=C/C(=O)c2c(O)cc(C)oc2=O)c(OC)c1 | – | inactive: 116% |
| O=C(CC1C(=O)NCCN1Cc1ccc(Cl)c(F)c1)NC1CCC1 (stereo not drawn) | inconclusive [inhibitor, partial curve, poor fit] | – |
| Cc1nc2ccccc2c(=O)n1NC(=O)c1ccccc1[N+](=O)[O-] | inconclusive [inhibitor, partial curve, poor fit] | – |
| Cc1nc(N2CCN(C(=O)c3ccco3)CC2)c2oc3ccccc3c2n1 | inconclusive [inhibitor, single point] | – |
| O=S(=O)(Nc1nc2ccccc2s1)c1ccc(Cl)nc1 | inconclusive [inhibitor, single point] | – |
| Oc1c(C(c2ccccn2)N2CCCCC2)cc(Cl)c2cccnc12 (stereo not drawn) | inconclusive [inhibitor, partial curve, poor fit] | – |
| O=c1[nH]c2ccccc2cc1CN(Cc1cccnc1)S(=O)(=O)c1ccc([N+](=O)[O-])cc1 | inconclusive [inhibitor, partial curve] | – |
| O=C(CCC(=O)c1ccccc1)Nc1ccccc1OC(F)F | – | inactive: 24.8% |
| COc1cc(OC)c(OC)cc1CN(C)C(c1ccccc1)c1nnnn1-c1ccccc1C (stereo not drawn) | inconclusive [inhibitor, partial curve, poor fit] | – |
| O=C1C(Cc2ccccc2)Nc2ncnc(N3CCc4ccccc4C3)c2N1Cc1ccc(Cl)cc1 (stereo not drawn) | active: 14.7 µM | – |
| O=C(Nc1ccc(Br)cc1)c1cccc(OC(=S)N2CCOCC2)c1 | – | inactive: 3.69% |
| COc1ccccc1-c1ccc(SCC(=O)N2CCOCC2)nn1 | inconclusive [inhibitor, partial curve, poor fit] | – |
| CC(=O)Nc1ccc(S(=O)(=O)NCCc2cc3ccc(C)c(C)c3[nH]c2=O)cc1 | inconclusive [inhibitor, single point] | – |
| N=c1c(C(=O)NCc2ccc(F)cc2)cc2c(=O)n3ccccc3nc2n1Cc1ccco1 | – | inactive: 21.1% |
| CC(C)(C)c1cc(CCC(=O)NN)cc(C(C)(C)C)c1O | inconclusive [inhibitor, single point] | – |
| CCCC(c1nnnn1C(C)(C)C)N1CCN(c2ccccc2)CC1 (stereo not drawn) | inconclusive [inhibitor, partial curve, poor fit] | – |
| O=C(CSc1nnc(COc2ccccc2Cl)o1)NC(=O)NCc1ccco1 | – | inactive: -6.02% |
| Cc1cc(Br)ccc1OCC(=O)NNC(=O)c1cnccn1 | inconclusive [inhibitor, single point] | – |

| SMILES | Potency | activity change, negative = inhibition |
| --- | --- | --- |
| COc1ccc(CCC(=O)OCC(=O)c2c(N)n(CC(C)C)c(=O)n(C)c2=O)cc1 | inconclusive [inhibitor, single point] | – |
| CCOc1ccccc1C1C(C#N)=C(N)SC(N)=C1C#N | inconclusive [inhibitor, single point] | – |
| Cc1ccc2[nH]c(=O)c(CN(CCCN3CCOCC3)C(=O)NC3CCCCC3)cc2c1 | inconclusive [inhibitor, single point] | – |
| O=C(CN1CCOCC1)Nc1c2c(nc3ccccc13)N(Cc1ccccc1)CC2 | inconclusive [inhibitor, single point] | – |
| CCOC(=O)c1cnc2ccc(Cl)cc2c1NCCN(C)C | inconclusive [inhibitor, single point] | – |
| COC(=O)c1cccnc1NC(=S)NC1CCCCC1 | inconclusive [inhibitor, single point] | – |
| CCCCN(C(=O)c1c(CC)noc1C)c1c(N)n(CCC)c(=O)[nH]c1=O | inconclusive [inhibitor, single point] | – |
| COc1ccc(S(=O)(=O)NCCC(=O)Nc2ccc(C)cc2)cc1 | – | inactive: 3.23% |
| O=C(O)C1(P(=O)(c2ccc(Cl)cc2)c2ccc(Cl)cc2)CCCC1 | – | inactive: -3.1% |
| COc1ccc(NS(=O)(=O)c2ccc(N3CCOCC3)c(NC(=O)c3ccccc3Cl)c2)cc1 | active: 10.4 µM | – |
| O=C(NCC1OCCc2ccccc21)c1ccc(NC(=O)c2cccc(Br)c2)cc1 (stereo not drawn) | inconclusive [inhibitor, single point] | – |
| CC1CCN(CCC(=O)Nc2ccc3c(c2)CCC3)CC1 | – | inactive: -2.42% |
| CCOc1ccc(NS(=O)(=O)c2ccc(C)c(C(=O)NCCCn3ccnc3)c2)cc1 | inconclusive [inhibitor, single point] | – |
| c1ccc2oc(C3=NNC(=NC4CC4)SC3)cc2c1 | – | inactive: -63.5% |
| O=C(COc1ccccc1C(=O)N/N=C\c1ccc(O)c(O)c1)N/N=C/c1ccc(O)c(O)c1 | inconclusive [inhibitor, partial curve, poor fit] | – |
| CC(C)CN(C(=O)CCCSc1nc2ccccc2[nH]1)c1c(N)n(Cc2ccccc2)c(=O)[nH]c1=O | inconclusive [inhibitor, single point] | – |
| CCOC(=O)CSc1nc(=O)n2ccc(C)cc2n1 | – | inactive: 10.6% |
| Cc1cnc(C)c(N2CCN(Cc3nc(-c4cccc(F)c4F)oc3C)CC2)n1 | inconclusive [inhibitor, single point] | – |
| Cc1ccc(-c2ccnc3nc(-n4cccc4)nn23)o1 | inconclusive [inhibitor, single point] | – |
| CC(C)N(CCCNC(=O)C1CCN(C(=O)c2cc3sccc3n2C)CC1)Cc1ccccc1 | inconclusive [inhibitor, partial curve] | – |
| Nc1c(C(=O)N/N=C/c2cccnc2)oc2nc(-c3ccccc3)cc(-c3ccco3)c12 | inconclusive [inhibitor, single point] | – |
| CCN(CC)C(=O)c1cccc(NC(=O)CC23CC4CC(CC(C4)C2)C3)c1 | inconclusive [inhibitor, partial curve] | – |
| CC(C)N(Cc1nc(-c2ccccc2)no1)C(=O)c1ccc(Br)o1 | – | inactive: -6.1% |

| SMILES | Potency | activity change, negative = inhibition |
| --- | --- | --- |
| Cc1ccc(CCNC(=O)C23CN(Cc4ccccc4)CC2C(c2cccc([N+](=O)[O-])c2)=NO3)cc1 (stereo not drawn) | active: 2.94 µM | – |
| S=C(Nc1ccccc1)N1CCN(c2ccccn2)CC1 | – | inactive: 13.3% |
| C=CCN1CC[C@]23c4c5ccc(O)c4O[C@H]2C(=O)CC[C@@]3(O)[C@H]1C5 | inactive | – |
| Cn1c(=O)[nH]c(=O)c2c1nc(CN1CCN(c3ccc(F)cc3)CC1)n2CCc1ccccc1 | inconclusive [inhibitor, single point] | – |
| CCOC(=O)c1c(C)[nH]c(C)c1S(=O)(=O)N1CCN(c2ccc([N+](=O)[O-])cc2)CC1 | – | inactive: -6.91% |
| Cc1cccc(Nc2nc(N)c([N+](=O)[O-])c(NCc3ccccc3)n2)c1 | inconclusive [inhibitor, single point] | – |
| CCOC(=O)c1c(NC(=O)Cc2ccccc2)sc2c1CCN(CC)C2 | inconclusive [inhibitor, single point] | – |
| COc1ccccc1NC(=O)Cc1noc(CSc2nnc(C)s2)n1 | inconclusive [inhibitor, partial curve, poor fit] | – |
| Cc1cc(C)c(-n2c(C)cc(/C=C3/NC(=O)NC3=O)c2C)c(C)c1 | inconclusive [inhibitor, partial curve] | – |
| Cn1cc(/C=N/NC(=O)c2ccccc2O)c2ccccc21 | inconclusive [inhibitor, single point] | – |
| COc1ccc(-c2c(-c3ccccc3OC)sc3ccccc23)cc1C=O | inconclusive [inhibitor, partial curve, poor fit] | – |
| COc1ccc(C(=O)CN2CCN(S(=O)(=O)c3cccc([N+](=O)[O-])c3)CC2)cc1 | – | inactive: 11.9% |
| O=C(COC(=O)Cc1ccc(S(=O)(=O)N2CCOCC2)s1)Nc1ccc([N+](=O)[O-])cc1 | inconclusive [inhibitor, single point] | – |
| CCc1ccc(OCC(=O)Nc2ccc(-c3cc4ccccc4oc3=O)c(OC)c2)cc1 | inconclusive [inhibitor, partial curve, poor fit] | – |
| Cc1ccc(C)c(N2CCN(C(=O)c3cc4sccc4n3C)CC2)c1 | inconclusive [inhibitor, single point] | – |
| Cc1sc2ncnc(N3CCN(Cc4ccccc4)CC3)c2c1-c1ccc(F)cc1 | active: 13.1 µM | – |
| Cc1ccc(S(=O)(=O)Nc2cc(C(C(=O)OC(C)C)C(=O)C(F)(F)F)c(O)c3ccccc23)c(C)c1 (stereo not drawn) | active: 13.1 µM | – |
| Cc1ccc(NC(=O)c2cccc(N3C(=O)CCC3=O)c2)nc1 | – | inactive: 39% |
| CCO[C@@H]1OC(C(=O)N2CCOCC2)=C[C@H](c2coc3ccccc3c2=O)[C@H]1CCCO | – | inactive: 23.7% |
| O=C(Nc1ccc(S(=O)(=O)N2CCCCC2)cc1)c1ccc(CN2CCOCC2)cc1 | inconclusive [inhibitor, single point] | – |
| O=C(CNCc1ccccc1)Nc1ccc(F)cc1 | – | inactive: 30.1% |
| COc1ccc2c(c1)/C(=N/N1C(=O)c3ccccc3C1=O)C(=O)N2 | inconclusive [inhibitor, full curve, poor fit] | – |
